Among the data in PMC9512828 are binding values, retold here.

By UniProt entry, the sequences of proteins in these tests, tags left out. Where a name states a change or a piece, a line headed by the entry shows the natural chain unless it says otherwise. Chains listed by the source or under a name are the forms on record and can include a tag or linker. Residues count along the entry.
PTH1R-WT coupled to a C-terminal HaloTag (parathyroid hormone 1 receptor) (Q03431, residues 27-593): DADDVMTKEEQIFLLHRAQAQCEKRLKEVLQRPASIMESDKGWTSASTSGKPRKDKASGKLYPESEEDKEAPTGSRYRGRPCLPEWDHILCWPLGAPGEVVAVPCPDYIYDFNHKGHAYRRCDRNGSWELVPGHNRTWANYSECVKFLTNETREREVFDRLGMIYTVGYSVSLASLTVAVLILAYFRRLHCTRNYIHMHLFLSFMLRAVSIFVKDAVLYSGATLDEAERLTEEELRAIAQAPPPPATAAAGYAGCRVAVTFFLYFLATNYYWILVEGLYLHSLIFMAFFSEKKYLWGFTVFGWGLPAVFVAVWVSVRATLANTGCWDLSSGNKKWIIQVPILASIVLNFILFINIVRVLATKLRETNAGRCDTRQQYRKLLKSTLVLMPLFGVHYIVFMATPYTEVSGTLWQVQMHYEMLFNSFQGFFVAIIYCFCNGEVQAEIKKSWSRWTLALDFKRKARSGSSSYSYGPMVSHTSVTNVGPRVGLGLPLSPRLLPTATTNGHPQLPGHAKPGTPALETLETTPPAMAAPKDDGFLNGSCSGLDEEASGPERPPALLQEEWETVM
PTH1R-PD1 coupled to a C-terminal HaloTag (proximal phosphorylation cluster substituted by alanine) (Q03431, form named): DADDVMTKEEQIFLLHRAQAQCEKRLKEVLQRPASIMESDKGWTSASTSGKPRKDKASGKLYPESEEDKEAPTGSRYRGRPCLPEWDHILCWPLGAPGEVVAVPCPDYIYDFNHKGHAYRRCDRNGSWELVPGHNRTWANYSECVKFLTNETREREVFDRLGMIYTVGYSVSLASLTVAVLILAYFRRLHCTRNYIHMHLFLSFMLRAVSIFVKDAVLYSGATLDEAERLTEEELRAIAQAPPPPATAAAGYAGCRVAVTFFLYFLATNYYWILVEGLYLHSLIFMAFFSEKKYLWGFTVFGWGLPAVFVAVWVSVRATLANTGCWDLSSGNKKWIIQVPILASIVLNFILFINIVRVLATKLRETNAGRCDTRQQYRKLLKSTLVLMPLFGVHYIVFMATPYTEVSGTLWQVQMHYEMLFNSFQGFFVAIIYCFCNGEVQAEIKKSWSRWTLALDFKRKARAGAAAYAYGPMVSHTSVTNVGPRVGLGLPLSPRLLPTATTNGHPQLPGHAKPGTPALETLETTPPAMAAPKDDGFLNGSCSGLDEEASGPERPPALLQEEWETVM
PTH1R-PD2 coupled to a C-terminal HaloTag (distal phosphorylation cluster substituted by alanine) (Q03431, form named): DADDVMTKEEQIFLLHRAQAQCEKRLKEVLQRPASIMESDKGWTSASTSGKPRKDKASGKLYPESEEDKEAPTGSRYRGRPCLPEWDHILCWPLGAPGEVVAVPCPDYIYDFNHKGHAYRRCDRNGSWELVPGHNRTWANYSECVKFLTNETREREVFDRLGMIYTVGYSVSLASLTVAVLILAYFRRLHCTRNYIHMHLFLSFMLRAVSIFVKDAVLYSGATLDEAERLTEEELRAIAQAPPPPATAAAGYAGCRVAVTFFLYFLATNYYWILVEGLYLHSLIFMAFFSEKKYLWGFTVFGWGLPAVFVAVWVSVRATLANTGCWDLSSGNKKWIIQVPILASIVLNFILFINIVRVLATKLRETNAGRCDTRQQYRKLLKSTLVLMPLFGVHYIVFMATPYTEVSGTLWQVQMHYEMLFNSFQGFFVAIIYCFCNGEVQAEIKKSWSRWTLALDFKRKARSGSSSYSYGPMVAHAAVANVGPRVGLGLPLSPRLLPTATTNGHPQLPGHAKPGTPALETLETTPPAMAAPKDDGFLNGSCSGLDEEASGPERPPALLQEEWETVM
UniProt P32120: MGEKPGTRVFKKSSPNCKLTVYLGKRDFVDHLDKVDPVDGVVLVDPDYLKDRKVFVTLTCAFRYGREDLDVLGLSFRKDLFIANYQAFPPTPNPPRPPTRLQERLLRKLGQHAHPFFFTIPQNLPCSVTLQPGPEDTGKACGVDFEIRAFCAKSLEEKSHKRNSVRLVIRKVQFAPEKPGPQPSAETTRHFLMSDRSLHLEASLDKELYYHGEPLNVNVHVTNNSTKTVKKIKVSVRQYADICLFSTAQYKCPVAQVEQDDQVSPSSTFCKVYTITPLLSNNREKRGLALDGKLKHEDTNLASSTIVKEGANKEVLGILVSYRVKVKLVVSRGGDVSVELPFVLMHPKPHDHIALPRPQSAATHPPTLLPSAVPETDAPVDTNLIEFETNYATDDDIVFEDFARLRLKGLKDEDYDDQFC
β-arrestin2-dFLR (finger-loop region Y64 to K78 deleted) C-terminally fused to Nanoluciferase (P32120, form named): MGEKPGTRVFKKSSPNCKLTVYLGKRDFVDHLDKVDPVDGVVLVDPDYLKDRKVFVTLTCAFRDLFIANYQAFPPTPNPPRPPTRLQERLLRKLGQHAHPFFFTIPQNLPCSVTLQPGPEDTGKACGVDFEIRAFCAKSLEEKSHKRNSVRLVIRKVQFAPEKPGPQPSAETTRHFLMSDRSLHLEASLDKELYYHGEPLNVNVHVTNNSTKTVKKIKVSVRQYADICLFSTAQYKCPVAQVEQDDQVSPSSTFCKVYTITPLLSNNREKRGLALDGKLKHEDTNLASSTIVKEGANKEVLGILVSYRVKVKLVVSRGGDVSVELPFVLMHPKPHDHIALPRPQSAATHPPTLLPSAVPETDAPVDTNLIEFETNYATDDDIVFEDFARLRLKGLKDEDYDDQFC

No constants are given. Whether binding was seen depends on the method and setting. Binding seen in cells or lysates may run through a third protein. Some binding calls cover weakened binding; strength is not graded here.

The target of assay [1] is PTH1R-WT coupled to a C-terminal HaloTag (parathyroid hormone 1 receptor) (UniProt Q03431). The assay is described as follows: FRET or BRET; intermolecular NanoBRET recruitment in living HEK293 (HEK-WT) cells with endogenous GRKs (also ΔQ-GRK cells with GRK2, 3, 5 or 6 overexpressed); PTH1R-HaloTag labelled with Halo-ligand(618) as acceptor, β-arrestin-NanoLuc as donor; stimulated with rising concentrations of PTH(1-34); measuring buffer 140 mM NaCl, 10 mM HEPES, 5.4 mM KCl, 2 mM CaCl2, 1 mM MgCl2, pH 7.3.

The target in assay [2] is PTH1R-PD1 coupled to a C-terminal HaloTag (proximal phosphorylation cluster substituted by alanine) (UniProt Q03431). The description is as above.
In assay [3] the target is PTH1R-PD2 coupled to a C-terminal HaloTag (distal phosphorylation cluster substituted by alanine) (UniProt Q03431). The description is as above.
In assay [4] the target is PTH1R-WT coupled to a C-terminal HaloTag (parathyroid hormone 1 receptor) (UniProt Q03431). Kind of assay: FRET or BRET; intermolecular NanoBRET recruitment in living ΔQ-GRK cells (GRK2, 3, 5 and 6 quadruple knockout, no GRK overexpressed); PTH1R-HaloTag labelled with Halo-ligand(618) as acceptor, β-arrestin-NanoLuc as donor; stimulated with rising concentrations of PTH(1-34); measuring buffer pH 7.3. Background: Bioluminescence resonance energy transfer reports proximity on the nanometre scale.

Assay [5] addresses PTH1R-PD1 coupled to a C-terminal HaloTag (proximal phosphorylation cluster substituted by alanine) (UniProt Q03431). The assay is described as above.
In assay [6] the target is PTH1R-PD2 coupled to a C-terminal HaloTag (distal phosphorylation cluster substituted by alanine) (UniProt Q03431). The description is as above.
The target of assay [7] is PTH1R-WT coupled to a C-terminal HaloTag (parathyroid hormone 1 receptor) (UniProt Q03431). The assay is described as follows: condition: only in ΔQ-GRK cells (GRK2, 3, 5 and 6 knocked out, no GRK overexpressed); FRET or BRET; intermolecular NanoBRET recruitment in living ΔQ-GRK cells (GRK2, 3, 5 and 6 quadruple knockout, no GRK overexpressed); PTH1R-HaloTag labelled with Halo-ligand(618) as acceptor, β-arrestin-NanoLuc as donor; stimulated with rising concentrations of PTH(1-34); measuring buffer pH 7.3.

Assay [8] concerns the target PTH1R-PD1 coupled to a C-terminal HaloTag (proximal phosphorylation cluster substituted by alanine) (UniProt Q03431). The assay is described as above.
Assay [9] has as its target PTH1R-PD2 coupled to a C-terminal HaloTag (distal phosphorylation cluster substituted by alanine) (UniProt Q03431). Described as above.

For “β-arrestin2 WT C-terminally fused to Nanoluciferase (from UniProt P32120 1-420)”, the binding entry in [1], in assay [2], in assay [3], in assay [4], in assay [5] and in [6] was “binds” throughout.
For “β-arrestin2-dFLR (finger-loop region Y64 to K78 deleted) C-terminally fused to Nanoluciferase (from UniProt P32120 1-420)”, the binding entry in assay [2] is recorded as “binds”; in assay [3] it was “binds weakly”; in [7], “no binding”; in assay [8], “no binding”; in assay [9] it was “no binding”.
